For 84 compounds, activation results are on record in PubChem BioAssay AID1645887 (National Center for Advancing Translational Sciences (NCATS), 2021).

SMILES strings stand for the structures. Several values for one entry are separate records, joined by “and”; a condition that tells them apart may be missing. Equal values may be shown once. Hit rate of the full screen: of about 16,000 compounds, about 40 (0.2%) were called active. Another 1% or so got no clear call; they are omitted. Calls come from the whole dose curve; as a rule, active = well fitted activation curve with a large enough effect; inconclusive = small, poorly fitted or top-dose-only effect, or another doubt; inactive = no such curve, though single readings can be large or run the other way. This is one part of the list.
% is set by controls: 0 for no effect and ±100 for the full control effect.

This test has as its target Rap guanine nucleotide exchange factor 4 (Homo sapiens) (UniProt Q8WZA2). The test is described as follows: Validation qHTS for agonist of cAMP-regulated guanine nucleotide exchange factor 4 (EPAC2).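 Note: exchange makes BODIPY-GDP fluorescence drop when released from Rap1B; series mostly up to about 150 µM.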 The settings on record: EPAC2 Rap1B BODIPY-GDP exchange, fluorescence; activation: active compounds read high. The method in brief: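 Signal normalized against 6.5 mM cAMP as agonist control. Mix of EPAC2 (100 nM), RAP1B-BODIPY-GDP (250 nM) and GDP (50 uM) was read kinetically at 480/540 nm, every 5 min over 30 min, after 5 min room-temperature incubation with compound.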
Sequence of UniProt Q8WZA2 (Q8WZA2 whole entry, looked up): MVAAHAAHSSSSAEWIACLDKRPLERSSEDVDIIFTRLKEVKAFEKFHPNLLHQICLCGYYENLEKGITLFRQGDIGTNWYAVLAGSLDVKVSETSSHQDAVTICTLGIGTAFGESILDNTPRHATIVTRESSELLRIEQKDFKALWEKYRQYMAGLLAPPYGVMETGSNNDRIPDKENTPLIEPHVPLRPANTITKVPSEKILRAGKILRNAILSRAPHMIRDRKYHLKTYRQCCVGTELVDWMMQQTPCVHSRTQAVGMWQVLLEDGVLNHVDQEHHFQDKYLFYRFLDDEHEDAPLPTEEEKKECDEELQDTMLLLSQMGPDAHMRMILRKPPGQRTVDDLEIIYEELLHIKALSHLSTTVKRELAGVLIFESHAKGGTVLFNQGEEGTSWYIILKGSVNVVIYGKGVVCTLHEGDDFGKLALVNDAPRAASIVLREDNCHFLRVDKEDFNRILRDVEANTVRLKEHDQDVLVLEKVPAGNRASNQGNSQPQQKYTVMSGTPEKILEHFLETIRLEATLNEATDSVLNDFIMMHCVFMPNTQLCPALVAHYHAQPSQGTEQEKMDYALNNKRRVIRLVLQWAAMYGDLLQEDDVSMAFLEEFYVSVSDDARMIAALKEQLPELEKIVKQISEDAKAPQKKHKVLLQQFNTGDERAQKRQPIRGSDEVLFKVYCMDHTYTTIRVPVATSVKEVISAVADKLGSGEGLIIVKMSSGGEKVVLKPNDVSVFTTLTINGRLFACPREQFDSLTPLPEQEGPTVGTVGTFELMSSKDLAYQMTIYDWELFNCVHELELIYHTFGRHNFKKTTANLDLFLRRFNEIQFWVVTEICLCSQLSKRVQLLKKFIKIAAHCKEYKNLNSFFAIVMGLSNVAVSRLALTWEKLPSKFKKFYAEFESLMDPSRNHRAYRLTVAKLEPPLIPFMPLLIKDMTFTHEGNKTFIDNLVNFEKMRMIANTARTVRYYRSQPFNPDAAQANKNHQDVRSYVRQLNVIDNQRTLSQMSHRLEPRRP
As for `COC(=O)c1sccc1S(=O)(=O)N1CCC(n2c(CC3CCCC3)nc3cccnc32)CC1`, the activation is inactive: -8.2%.
With `Nc1nc(Nc2ccccc2)nc2c1ncn2[C@@H]1O[C@@H](CO)[C@H](O)[C@H]1O`, the activation was inactive: -31.9%.
With `COC(=O)[C@@H]1C[C@H](NC(=O)c2ccccc2C(F)(F)F)CN1Cc1cccc(O)c1`, the activation is inactive: -9.41%.
As to `Cc1ccccc1-c1nccc(NCc2cccnc2)n1`, the activation is inactive: -10.5%.
In the case of `COc1cccc(Cn2c(=O)c(-c3cccs3)nc3cnc(Nc4cccc(OC)c4)nc32)c1`, the activation is inactive: 4.15%.
Take `O=C(C[n+]1ccnc2ccccc21)c1ccc(Cl)cc1`: the activation is inactive: -16.5%.
As to `COc1ccnc(CS(=O)c2nc3ccc(OC(F)F)cc3[nH]2)c1OC` (centres undefined), the activation was inactive: 4.36%.
With `CC[C@@H]1[C@H]2CCCC(=O)N3CC[C@@H](C[C@H]1O)[C@@H]23` the figure was inactive: -8.94%; with `O=C(NCCN1Cc2ccccc2OC(c2ccccc2F)C1)c1ccco1` (centres undefined), inactive: -16.6%.
With `COc1cc2c(cc1OC)C(/C=C/c1ccc(OC)c(OC)c1OC)=NCC2`, the activation was inactive: -14.1%.
Turning to `O=C(c1cnccn1)N1CCC2(CC1)CCN(c1cccc(-c3ccccc3)c1)CC2`, the activation was inactive: -15.8%.
For the compound `Cc1ccc(CN2CCc3nnc(C(C)NC(=O)c4cc(F)ccc4F)n3CC2)o1` (centres undefined), the activation is inactive: 2.95%.
As for `CC(=O)Nc1ccc(SCCN2CC[C@@H](C(C)(C)C)CCC2=O)cc1`, the activation is inactive: -33.7%.
Regarding `COc1cc(CN2CCOc3ccc(CN4CCN(CCO)CC4)cc3C2)ccc1F`, the activation was inactive: -17.1%.
For the compound `CCC1C(=O)NCCN1Cc1ccc2c(c1)CN(Cc1cccc(OC)c1)CCO2` (centres undefined), the activation is inactive: 6.63%.
Regarding `CN(C(=O)c1c(O)c2ccccc2n(C)c1=O)c1ccccc1`, the activation was inactive: -10.5%.
With `OCc1ccccn1` the figure was inactive: -9.48%; with `O=C(Oc1ccccc1)N1CCC2(CC1)CCN(c1ccccn1)CC2`, inactive: -30.6%.
As for `COc1cc(-c2cc(C)c3c(OC)ccc(OC)c3n2)cc2c1OCCN(Cc1cn(C)nc1C)C2`, the activation was inactive: 3.45%.
Take `COc1cc(=O)n2c(c1C(=O)N(C)C(C)c1ccco1)CCN(C(=O)c1ccc(C(C)=O)cc1)CC2` (centres undefined): the activation was inactive: 9.38%.
As for `COc1ccc2c(c1)OC(C)CN(CCNC(=O)c1cccc(N3CCNC3=O)c1)C2` (centres undefined), the activation was inactive: -7.46%.
As for `O=C(NCCc1nnc2n1CCN(Cc1ccccn1)CC2)c1ccc(F)cc1`, the activation was inactive: -1.81%.
For `CCS(=O)(=O)Nc1cc(C(=O)N2CCCN(C=O)CC2)c2c(c1)nc(-c1ccccc1)n2C` the value was inactive: -2.52%; for `COc1ccc(CNC(=O)[C@@H]2CC=C[C@@H]3CCN(C4CCCCC4)C(=O)[C@@H]32)cc1`, inactive: -7.04%.
With `COC1=CC(=O)C=C(OC)C1=O`, the activation is inactive: 7.62%.
Take `COC(=O)C1OC(=O)C2OC23[C@]2(C)C(OC(C)=O)CC4C(C)(C)C(=O)CC[C@]4(C)C2CC[C@@]13C` (some centres undefined): the activation is inactive: -8.86%.
For the compound `CCc1ccc(C(=O)C(C)CN2CCCCC2)cc1` (centres undefined), the activation was inactive: -7.8%.
Turning to `CC(C)N1[N]C(=C2C=c3cc(O)ccc3=N2)c2c(N)ncnc21`, the activation is inactive: -6.48%.
With `COc1cc(OC)c2c(=O)c(-c3ccccc3)c(C)oc2c1OC` the figure was inactive: -1.16%; with `O=C(c1cnccn1)N1CCC[C@@]2(CCN(Cc3ccncc3)C2)C1`, inactive: -6.74%; with `CC(CCC(=O)O)C1CCC2C3CC[C@H]4CC(O)CC[C@@]4(C)C3C=C[C@]12C` (some centres undefined), inactive: -3.85%.
For `COc1ccc(CN2CCN(C(c3ccc(F)cc3)c3ccc(F)cc3)CC2)c(OC)c1OC`, the activation was inactive: -9.75%.
Regarding `CC(C)Cc1ccc(C(C)C(=O)O)cc1` (centres undefined), the activation was inactive: -6.1% and inactive: 5.21% and inactive: -26.9%.
Consider `CC(C)C[C@@H](CN=[N+]=[N-])N1CCN(CC(C)C)CCC1=O`, for which the activation was inactive: -11.8%.
Consider `[Cl][In]([Cl])[Cl]`, for which the activation is inactive: -14.9%.
Consider `COc1cc2c(cc1OC)C(=O)N(C)CC2`, for which the activation was inactive: -9.91%.
In the case of `COC(=O)c1cc(-c2c(-c3cc(OC)c(OC)c(OC)c3)noc2C)cc([N+](=O)[O-])c1`, the activation is inactive: -4.06%.
For the compound `C#CCN(C1CCCC1)S(=O)(=O)C=C`, the activation was inactive: -11.6%.
With `COC(=O)N1CCC2(CCCN(C(c3ccccc3)c3ccccc3)C2)CC1`, the activation is inactive: -12.3%.
Consider `COc1ccc(CCNC(=O)c2cnn(-c3nccc(-c4cccs4)n3)c2C)cc1OC`, for which the activation was inactive: -15.8%.
`CC(=O)NCCNc1ncnc2ccc(-c3ccc4c(c3)OCO4)cc12`: the activation is inactive: 2.54%.
On to `N#Cc1cccc(-c2cc(NCc3cccs3)ncn2)c1`, for which the activation is inactive: -20.6%.
For `O=C(Cn1cncn1)NCC1Cc2cc(-c3ccsc3)cc(Cl)c2O1` (centres undefined), the activation is inactive: -13.7%.
With `CC(C)(C)NC[C@H](O)COc1ccccc1C1CCCC1`, the activation was inactive: 2.51%.
In the case of `COC(=O)C[C@H]1c2cc(C(F)(F)F)ccc2S(=O)(=O)N1C(C)C`, the activation is inactive: -35.6%.
Consider `COc1cc(-c2cccc(Cl)c2)cc2c1OCCN(C(=O)CCn1ccc(C)n1)C2`, for which the activation is inactive: -18.2%.
Regarding `Cc1nc2cc(NC(=O)[C@@H]3C[C@@H](Sc4ccccn4)CN3Cc3ccccc3F)ccc2s1`, the activation is inactive: 3.35%.
`CC(C)(C)NCC(O)COc1cccc2c1C[C@H](O)[C@H](O)C2` (some centres undefined): the activation is inactive: 1.58%.
On to `COc1ccc(NC(=O)N2CC3(CCN(S(=O)(=O)c4ccccc4)CC3)C2)cc1`, for which the activation was inactive: -7.63%.
For `Nc1nc(=O)n(C2OC(CO)C(O)C2O)cc1Cl` (centres undefined) the value was inactive: -10.6%; for `CCCCC[C@H](O)C=C[C@H]1[C@H](O)CC(=O)[C@H]1CCCCCCC(=O)O`, inactive: -15.3%; for `COc1ccc(C(=O)c2ccccc2O)c(O)c1`, inactive: -4.9% and inactive: -5.65%.
With `COc1ccccc1CN1CCC2(CC1)CCN(C(=O)c1csnn1)CC2`, the activation is inactive: -11.2%.
Turning to `COc1ccc(OC)c(CN2CCCC(c3nc(-c4ccncc4)ncc3-c3ccccc3C)C2)c1` (centres undefined), the activation was inactive: -2.68%.
For `O=C(c1csnn1)N1CCC2(CC1)CN(c1ccccn1)C2` the value was inactive: -22.7%.
Regarding `COCCc1ccc(OCC(O)CNC(C)C)cc1` (centres undefined), the activation is inactive: -2.34% [middle of 4 runs].
For `COc1ccc(CNc2ncncc2-c2ccc(N(C)C)cc2)c(OC)c1`, the activation was inactive: -5.86%.
For `COc1ccc(O)c(C(=O)N2CCC3(CC2)c2ccccc2[C@@H](NC(=O)c2ccccn2)[C@@H]3OC)c1`, the activation is inactive: -11%.
For `N#CCCn1c(=O)c(CCc2ccccc2)nc2cnc(N3CCOCC3)nc21`, the activation was inactive: -17.5%.
As for `Nc1nc2[nH]cc(CCc3ccc(C(=O)N[C@@H](CCC(=O)O)C(=O)O)cc3)c2c(=O)[nH]1`, the activation is inactive: -11.3%.
For the compound `O=C(c1cnn2cccnc12)N1CCOc2ccc(C(O)C(c3ccccc3)c3ccccc3)cc2C1` (centres undefined), the activation was inactive: -17.2%.
In the case of `CCCCCCCCCCCCCCCCOCC(COP(=O)([O-])OCC[N+](C)(C)C)OC` (centres undefined), the activation was inactive: -6.27%.
Take `O=C(c1cccc(F)c1)N1CCC2(CCCN(c3ncccn3)C2)CC1`: the activation is inactive: 3.96%.
With `O=C(OCCOCCO)c1ccccc1Nc1cccc(C(F)(F)F)c1` the figure was inactive: -19.4%; with `Cc1ncc2c(c1CNC(=O)c1ccc3c(c1)OCO3)CCN(C(=O)c1scc3c1CCCC3)C2`, inactive: -13.8%.
For `COCCn1c(=O)c(-c2cc(F)cc(F)c2)nc2cnc(Oc3ccc(OC)cc3)nc21` the value was inactive: -11.7%.
Regarding `c1ccc(-c2onc(-c3ccco3)c2-c2ccc3c(c2)OCO3)cc1`, the activation is inactive: -7.17%.
`CC1=C(C/C=C(\C)CCC[C@H](C)CCC[C@H](C)CCCC(C)C)C(=O)c2ccccc2C1=O`: the activation was inactive: -17%.
For `O=C(O)c1cc2ccccc2c(Cc2c(O)c(C(=O)O)cc3ccccc23)c1O` the value was inactive: -24.9%; for `CCC1OC(=O)C[C@@H](O)[C@H](C)[C@@H](O[C@@H]2O[C@H](C)C[C@H](N(C)C)[C@H]2O)[C@@H](CC=O)C[C@@H](C)C(=O)/C=C/[C@]2(C)OC2C1C` (some centres undefined), inactive: 6.15% and inactive: -13.3%; for `COc1ccc2cccc(N3CCN(CCNC(=O)c4ccc(F)cc4)CC3)c2c1`, inactive: -7.81%.
For the compound `O=C1CCC[C@@H]2Cc3nc4ccccc4cc3[C@@H]3CCN1[C@H]23`, the activation is inactive: -8.51%.
For the compound `Cc1ncc2c(c1CNC(=O)c1ccccc1F)CCN(C(=O)c1csc(-c3cccs3)n1)C2`, the activation is inactive: 0.511%.
In the case of `CC[N+]1(CC(=O)c2ccc(Cl)cc2)CCCCC1`, the activation was inactive: -20.1%.
As to `Cc1ccc2occ(CN3CCOc4ccc(C(C)(O)COc5ccccc5)cc4C3)c(=O)c2c1` (centres undefined), the activation was inactive: -22.1%.
For `C=C[C@@]1(C)CC(=O)[C@@]2(O)[C@@]3(C)[C@@H](O)CCC(C)(C)[C@@H]3[C@H](O)[C@H](OC(C)=O)[C@@]2(C)O1`, the activation was inactive: -11.8%.
On to `COc1ccc2[nH]cc(CCNc3ccnc(-c4c(C)noc4C)n3)c2c1`, for which the activation is inactive: 0.121%.
For `OC(CN1CCCCC1)c1ccccc1` (centres undefined) the value was inactive: -22.8%; for `COC(=O)C1=C(C)NC(C)=C(C(=O)OCCSc2ccccc2)[C@@H]1C`, inactive: -10.9%; for `CCC(C)c1ccc(O[C@@H]2O[C@H](CO)[C@@H](O)[C@H](O)[C@H]2NC(C)=O)cc1` (some centres undefined), inactive: -1.57%.
For `O=c1c(-c2ccc(F)cc2)nc2cncnc2n1-c1ccccc1` the value was inactive: -9.95%.
Turning to `N[C@H](C(=O)O)[C@H]1C[C@@H]1C(=O)O`, the activation was inactive: -0.0093% and inactive: -5.02%.
With `CCOC(=O)C1=C(C)NC(c2ccccc2)=C(C(=O)OCc2ccc([N+](=O)[O-])cc2)[C@@H]1C#Cc1ccccc1` the figure was inactive: -7.05%; with `Cc1nc2cnc(Nc3ccccc3)nc2n(C[C@H]2CCCO2)c1=O`, inactive: -3.96%.
